# About 2,200 (0.71%) of roughly 310,000 compounds showed an effect of 50% or more. Effects have a minus sign here. Some of the results follow.
# Target: human ether-à-go-go-related gene (hERG) potassium channel (human, UniProt Q12809)
# Experiment: primary screen, population patch clamp on CHO cells stably expressing hERG
# human ether-à-go-go-related gene (hERG) potassium channel, sequence (Q12809 whole entry, looked up): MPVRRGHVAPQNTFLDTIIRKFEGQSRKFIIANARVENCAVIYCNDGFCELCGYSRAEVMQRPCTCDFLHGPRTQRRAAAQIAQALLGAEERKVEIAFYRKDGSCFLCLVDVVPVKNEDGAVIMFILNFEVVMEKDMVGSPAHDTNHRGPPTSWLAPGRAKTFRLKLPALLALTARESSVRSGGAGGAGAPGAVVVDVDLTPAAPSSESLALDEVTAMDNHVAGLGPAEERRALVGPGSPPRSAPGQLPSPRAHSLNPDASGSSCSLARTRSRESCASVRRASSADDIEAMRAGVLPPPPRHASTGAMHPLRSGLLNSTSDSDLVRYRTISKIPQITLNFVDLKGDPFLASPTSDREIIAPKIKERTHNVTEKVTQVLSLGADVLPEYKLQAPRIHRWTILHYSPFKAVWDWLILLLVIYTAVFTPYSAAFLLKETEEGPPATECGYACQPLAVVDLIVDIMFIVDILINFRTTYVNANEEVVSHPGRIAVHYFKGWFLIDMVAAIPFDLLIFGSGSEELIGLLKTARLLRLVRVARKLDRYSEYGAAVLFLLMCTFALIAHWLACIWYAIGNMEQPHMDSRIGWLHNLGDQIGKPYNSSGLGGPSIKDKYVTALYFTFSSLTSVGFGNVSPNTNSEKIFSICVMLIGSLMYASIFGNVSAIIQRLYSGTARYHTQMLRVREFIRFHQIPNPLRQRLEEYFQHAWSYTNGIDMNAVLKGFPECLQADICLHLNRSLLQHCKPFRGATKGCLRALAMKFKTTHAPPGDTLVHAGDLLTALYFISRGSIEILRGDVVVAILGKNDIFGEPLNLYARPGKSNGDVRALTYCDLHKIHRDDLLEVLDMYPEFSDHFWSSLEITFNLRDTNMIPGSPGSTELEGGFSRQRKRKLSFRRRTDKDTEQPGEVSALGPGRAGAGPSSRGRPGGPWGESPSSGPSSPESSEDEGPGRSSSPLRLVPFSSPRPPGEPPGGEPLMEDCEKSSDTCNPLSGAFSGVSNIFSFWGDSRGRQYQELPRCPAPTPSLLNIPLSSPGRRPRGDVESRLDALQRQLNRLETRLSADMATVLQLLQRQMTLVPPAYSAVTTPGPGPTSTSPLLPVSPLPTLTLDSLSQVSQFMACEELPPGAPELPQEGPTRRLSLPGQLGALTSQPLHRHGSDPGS
row,SMILES,"hERG current change (%, negative = inhibition) at 1uM [%]"
1,CC(Cc1ccccc1)NC(=O)CSc1nc2nc3c(cc2c(=O)n1-c1ccccc1)COC(C)(C)C3 (stereo not drawn),0.807
2,COc1ccc2c(C(=O)c3ccc(C)cc3)n(CCCC(N)=O)[n+]([O-])c2c1,-8.73
3,COc1ccc(C(=O)COC(=O)CCCN=C2NS(=O)(=O)c3ccccc32)c(OC)c1,-0.594
4,O=C1CCC(C(=O)OCC(=O)c2c[nH]c3ccccc23)=NN1,-2.13
5,Cc1ccccc1N1C(=O)C2ON(c3ccccc3)C(c3cccnc3)C2C1=O (stereo not drawn),9.69
6,Cc1ccccc1NC(=O)C1CCN(c2cnccn2)CC1,-11.7
7,CCc1nnc(NC(=O)CCC(=O)N2CCN(C3c4ccccc4-c4ccccc43)CC2)s1,9.13
8,Cc1nc(NC(=O)C2CCCC2)sc1Cc1ccc2c(c1)OCO2,0.228
9,Brc1ccc(-c2noc(COc3ccc4ccccc4c3)n2)o1,0.61
10,COc1ccc(CNC(=O)c2cc(C3CC3)nc3c2cnn3C(C)C)cc1OC,1.46
11,O=C(Nc1ccc(S(=O)(=O)Nc2ncccn2)cc1)c1ccco1,8.24
12,C[n+]1cccc(C(=O)Nc2ccccc2)c1.[Cl-],15.4
13,O=C(NCc1cccs1)C1CC(=O)N(c2ccc(Cl)cc2)C1 (stereo not drawn),-11
14,Cc1cc(C2=NNC(=NC3CC3)SC2)c(C)n1-c1c(C)n(C)n(-c2ccccc2)c1=O.Cl,2.13
15,O=C(Nc1ccc2nccnc2c1)Nc1ccccc1Cl,10.3
16,O=C(CSc1nnnn1-c1ccc(Cl)cc1)N1CCc2ccccc2C1,-1.89
17,Cc1ccc(-c2c(C#N)c(N)nc3c2CCCCCC3)o1,11.9
18,O=C(NCCc1ccc(C(F)(F)F)cc1)C1COc2ccccc2O1 (stereo not drawn),13
19,COC(=O)CC(c1ccc(C#N)cc1)n1c(C)ccc1C (stereo not drawn),1.2
20,Cc1ccc(C(=O)Nc2ccc(Nc3ccccc3)cc2)cc1Br,5.29
21,COc1ccc(C)cc1NC(=O)Nc1cccc(C)c1,2.98
22,COc1ccc(NC(=O)c2ccccc2Cl)cc1NC(=O)CN1CCOCC1,9.66

row,SMILES,"hERG current change (%, negative = inhibition) at 1uM [%]"
1,O=C(COc1ccc(Cl)cc1)N1CCN(c2ccc([N+](=O)[O-])c(N3CCCCC3)c2)CC1,12.1
2,Cc1ccc(C(=O)NC(=S)Nc2ccc(S(=O)(=O)N3CCN(C)CC3)cc2)cc1,17.3
3,O=C1CC(/C=C/c2ccncc2)=Nc2ccccc2N1,1.92
4,C#CCNC(=O)C1=C[C@@H](c2ccc(C(F)(F)F)cc2)[C@H](CCCO)[C@@H](OCC)O1,2.03
5,O=C(Cn1[nH]c(=O)c2ccccc2c1=O)NC1CCN(Cc2ccccc2)CC1,12.9
6,CCOC(=O)c1cccc(NC(=O)CSc2nnc(CNc3ccc(C)cc3)n2CC)c1,3.06
7,COCCn1c(SCC(=O)NC2CCCCC2C)nnc1-c1ccncc1 (stereo not drawn),4.04
8,Cc1cc(C(=O)OCC(=O)Nc2cccc(F)c2)c(C)n1C1CC1,5.04
9,O=C(CNC(=O)c1ccccc1)OC(C(=O)Nc1cc(C(F)(F)F)ccc1Cl)c1ccccc1 (stereo not drawn),11.8
10,CCn1cc(C(C)NC(=O)Nc2ccccc2C(=O)OC)c(C)n1 (stereo not drawn),8.58
11,CCN(CC)S(=O)(=O)c1ccc(F)c(C(=O)NCCCN2CCOCC2)c1,-0.0198
12,OCc1ccccc1O[C@@H]1O[C@H](CO)[C@@H](O)[C@H](O)[C@H]1O,9.77
13,Cc1n[nH]c(C)c1S(=O)(=O)N1CCc2ccccc2C1,8.95
14,COc1ccc(NC(=O)C2CC(=O)N(CCc3ccc(Cl)cc3)C2)cc1 (stereo not drawn),-0.574
15,Cc1ccc(C)c(S(=O)(=O)NC(CC(C)C)C(=O)O)c1 (stereo not drawn),3.44
16,CC1(C)CC(CCC(=O)Nc2ccccc2Cl)C(=O)O1 (stereo not drawn),7.04
17,COC(=O)Cn1c2ccc(C)cc2c2nc(C)sc21,-1.12
18,CC(=O)SCCC(=O)Nc1ccccc1,10.5
19,Cc1occc1C(=O)NNC(=S)NCC(C)C,6.87
20,Cc1ccc(CNC(=O)C2CCCN2C(=O)Nc2cccc(Cl)c2)cc1 (stereo not drawn),9.48
21,Cc1ccc(C)c(NC(=O)CN(C)C(=O)CSC(C)C(=O)Nc2cc(C)on2)c1 (stereo not drawn),0.497
22,CCCCN1C(=O)C2NN=C(C(=O)OCC)C2C1=O (stereo not drawn),16.2

row,SMILES,"hERG current change (%, negative = inhibition) at 1uM [%]"
1,CC(=O)OCC1=C(C(=O)O)N2C(=O)C(NC(=O)c3ccc(COc4c(C)cccc4Cl)o3)C2SC1 (stereo not drawn),7.12
2,COc1ccc(-c2[nH]ncc2/C=N/NC(=O)c2ccncc2)c(OC)c1,21.6
3,Cc1ccc(S(=O)(=O)NC(C)C(=O)NC2CC2)cc1 (stereo not drawn),14.5
4,CCN(CC)S(=O)(=O)c1ccc(NC2CCN(Cc3ccccc3)CC2)nc1,-13.8
5,CCN(CC)S(=O)(=O)c1cc(NC(=O)C2CC(=O)N(Cc3ccccc3)C2)ccc1Cl (stereo not drawn),22.4
6,Cc1cccc(-n2ncc3c(NCCCN4CCCC4=O)ncnc32)c1,1.18
7,COc1cccc(OC)c1C(=O)NC(=O)Nc1c(C)cccc1C,1.75
8,O=CC1=C(N2CCOCC2)/C(=C/c2ccc(Cl)cc2)CC1,10.5
9,COc1ccc(/C=C2\SC(=O)N(CC(=O)Nc3ccccc3O)C2=O)cc1OC,7.58
10,CCCCN(C(=O)CN1CC(C)OC(C)C1)c1c(N)n(CC(C)C)c(=O)[nH]c1=O (stereo not drawn),8.12
11,O=C1COc2ccc(C(=O)CSc3ccccc3C(=O)O)cc2N1,13.5
12,CN1C2CCC1CC(OC(=O)c1c[nH]c3ccccc13)C2 (stereo not drawn),-32.2
13,CCOC(=O)c1c(-c2ccccc2)csc1NC(=O)c1ccc(N2C(=O)CCC2=O)cc1,7.34
14,O=S(=O)(Nc1ccc(Cc2ccncc2)cc1)c1ccc(Br)cc1,-2.24
15,Cc1sc2ncn(CC(=O)Nc3ccccc3F)c(=O)c2c1-c1ccccc1,6.13
16,CCOC(=O)C(C)n1nc(/C=C/c2ccccc2)ccc1=O (stereo not drawn),14.4
17,CN(c1ccc(OC(=O)c2ccc(-n3cncn3)c([N+](=O)[O-])c2)cc1)S(=O)(=O)c1ccccc1,1.32
18,O=C(CSc1n[nH]c(-c2ccccc2Cl)n1)NC1CCCCC1,13.2
19,CC(C)CC(=O)NC(=S)Nc1cccc(NC(=O)c2ccccc2Cl)c1,8.14
20,CC(C)(C)C(=O)Nc1sc2c(c1C#N)CCC2,16.8
21,CCC1Oc2ccccc2N(CC(=O)NCCN2CCCC2)C1=O (stereo not drawn),-4.95
22,Cc1ccn(CCSCC(=O)O)n1,3.9

row,SMILES,"hERG current change (%, negative = inhibition) at 1uM [%]"
1,Cc1ccc(C)c(N2CCN(C(=O)c3ccc(Cl)c(NC4=NC5CS(=O)(=O)CC5S4)c3)CC2)c1 (stereo not drawn),9.66
2,CCCN1Cc2cccc(C(=O)NC(CC(=O)OCC)c3ccc(OCC)c(OC)c3)c2C1=O (stereo not drawn),5.56
3,CCN1CCN(C(=O)C2c3cc(OC)c(OC)cc3C(=O)N(C)C2c2ccc(SC)cc2)CC1 (stereo not drawn),6.82
4,CC(=O)OCC(=O)[C@@]1(O)CC[C@H]2[C@@H]3CCC4=CC(=O)C=C[C@]4(C)[C@@]3(F)[C@@H](O)C[C@@]21C,6.06
5,C[C@]12CCC(O)CC1CCC1C2CC[C@]2(C)C(c3cc(C(F)(F)F)n[nH]3)CCC12 (stereo partly drawn),15.6
6,CC(=O)N1CCN(CC(=O)Nc2ccc(C)c(F)c2)CC1.Cl,13.1
7,CCOC(=O)c1cnn(C)c1NC(=O)c1ccc([N+](=O)[O-])cc1,7.6
8,CSc1nnc(-c2cccs2)n1-c1ccccc1,5.08
9,COc1ccc(C)cc1N(CC(=O)O)S(=O)(=O)c1ccc(C)cc1,8.68
10,Cc1c(C)n(CC(O)CN2CCCCCC2)c2ccccc12 (stereo not drawn),3.69
11,CC(C)(O)C(=O)N/N=C\c1ccc(OC/C=C/c2ccccc2)cc1,17.3
12,COc1ccc2sc(N(CCCN(C)C)C(=O)c3ccc(S(=O)(=O)N(C)Cc4ccccc4)cc3)nc2c1.Cl,-2.1
13,CCN1CCN(c2nc3ccccc3s2)CC1,-2.14
14,CCn1c(=O)c([N+](=O)[O-])c(NCc2ccco2)c2ccccc21,9.47
15,Cc1cccc(-n2ncc3c2CCCC3NC(=O)CN2CCCC2=O)c1C (stereo not drawn),16
16,CC1CCC(NC(=O)c2cccc(S(=O)(=O)NCc3ccccc3)c2)CC1 (stereo not drawn),5.73
17,O=C(OCC(=O)N1CCCC1=O)c1nc(Cl)c(Cl)c(Cl)c1Cl,-9.63
18,CCOC(=O)c1c(-c2ccccc2)nc2ccc(Cl)cn12,20.4
19,Cc1ccc(S(=O)(=O)N2CCCCC2)cc1NC(=O)CSc1ncccn1,12.3
20,CN(C)c1oc(-c2ccc(Cl)cc2)nc1S(=O)(=O)c1ccccc1,13.2
21,CN(C)C(=O)C[n+]1ccc(C(N)=O)cc1.[Cl-],9.46

# Source: paper PMC4336329 (PLoS ONE, 2015)
